B1: tRNA (parent)
chain: CUCUCGGUAGCCAAGUUGGUUUAAGGCGCAAGACUUUAAUUUAUCACUACGAAAUCUUGAGAUCGGGCGUUCGACUCGCCCCCGGGAGAUUUUUUCCUCGAGCAA

Variants at the background level are over-represented here. Bounds are passed on as bounds.

Experimental findings from the RNAGym collection of RNA variant scans (doi:10.1101/gad.245936.114) are described below.

In the data set the parent is B1. The data set is described as follows: nonsense suppression (GFP-seq) (ratio to wild type); higher = more function; SUP4oc tRNA, yeast GFP reporter sort-seq. The essentials:
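Yeast carrying genome-integrated SUP4oc tRNA variants from a library with ~3% random mutations were grown in raffinose/galactose medium with 80 mg/L adenine. Each strain also carried a galactose-driven GFP ochre reporter and RFP. Cells were sorted into GFP/RFP bins, and each bin was Illumina-sequenced (phred ≥30). Nonsense suppression (GFPSEQ) is the bin median GFP/RFP, weighted by each variant's estimated cell share per bin, relative to wild-type SUP4oc; variants needed ≥100 reads and ≥30 cells.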
With C27U C83A, the nonsense suppression is at most 0.026.

For U17C G67U, the nonsense suppression is at most 0.026.

Consider C5U A14C U16G U57C C82A, for which the nonsense suppression was at most 0.026.

As to C1G G7U U8C, the nonsense suppression was at most 0.026.

For the variant U8C G61U, the nonsense suppression is at most 0.026.

Turning to U16C U63C, the nonsense suppression amounted to 1.11.

As to G6A A30C, the nonsense suppression is at most 0.026.

For A9C A23U, the nonsense suppression was at most 0.026.

In the case of C11A U17G U57C C81U, the nonsense suppression is at most 0.026.

As for G15U G66A, the nonsense suppression was at most 0.026.

Take C29U C79A: the nonsense suppression is at most 0.026.

As to G19U A74G, the nonsense suppression is at most 0.026.

Consider U16G U21G C77G, for which the nonsense suppression was at most 0.026.

With A33U G67U U76C, the nonsense suppression is at most 0.026.

Take A14G C29U: the nonsense suppression was 0.0832.

With C3U G73C, the nonsense suppression is at most 0.026.

For C5U U22A C34A A54G, the nonsense suppression was at most 0.026.

On to A31C A62G G78A, for which the nonsense suppression is at most 0.026.

Consider C1G A33U G67A, for which the nonsense suppression is at most 0.026.

For G10U U55G G67A, the nonsense suppression was at most 0.026.

Take U57C A60C: the nonsense suppression was at most 0.026.

On to C12G U17C U21G, for which the nonsense suppression is at most 0.026.

Regarding A9U C27U A54C A62C, the nonsense suppression was at most 0.026.

U57C: the nonsense suppression was at most 0.026.

In the case of A54U C82G C83G, the nonsense suppression is at most 0.026.

As to C3A A33U A60U, the nonsense suppression was at most 0.026.

For C1U A13U C82A, the nonsense suppression was at most 0.026.

In the case of G6U A30U, the nonsense suppression is at most 0.026.

In the case of U2G A14C G84C, the nonsense suppression was at most 0.026.

Turning to C5A G67C, the nonsense suppression was at most 0.026.

In the case of C11A U16A U17A A74G, the nonsense suppression was at most 0.026.

For G7U U17G A74G A89C, the nonsense suppression was at most 0.026.

For the variant U21G C68A, the nonsense suppression is at most 0.026.

Regarding A14U G19C U71G, the nonsense suppression is at most 0.026.

Take C27U U71G G85C: the nonsense suppression was at most 0.026.

U57C G86C: the nonsense suppression was at most 0.026.

For A23C A31U C75A, the nonsense suppression was at most 0.026.

With U17A U58A, the nonsense suppression is at most 0.026.

Take G6U U21G G61C: the nonsense suppression is at most 0.026.

As for U58G C75U, the nonsense suppression is at most 0.026.

U55A A62C G88U: the nonsense suppression was at most 0.026.

For the variant G7U G19U, the nonsense suppression is at most 0.026.

G7U C12U G18U G26C C34U: the nonsense suppression was at most 0.026.

For the variant C3A A33U, the nonsense suppression is at most 0.026.

In the case of G6A C29A, the nonsense suppression is at most 0.026.

Regarding G28C A60C, the nonsense suppression is 0.235.

A23U G65U: the nonsense suppression is at most 0.026.

With A54C G61C, the nonsense suppression turned out to be 0.216.

For G6C A23G A24C A54C U76G G78U, the nonsense suppression was at most 0.026.

C1G C3G C34U: the nonsense suppression is at most 0.026.

For C34G U71A C80U, the nonsense suppression was at most 0.026.

For the variant A13U G32U C77A, the nonsense suppression is at most 0.026.

As for G15A C29U C77G, the nonsense suppression is at most 0.026.

For C75A C81G, the nonsense suppression is at most 0.026.

Consider A14G A30G, for which the nonsense suppression amounted to 0.03.

A9G A14C A31U: the nonsense suppression was at most 0.026.

C1U C3U C11G A31G: the nonsense suppression is at most 0.026.

Turning to G10U G25U U76A, the nonsense suppression is at most 0.026.

On to U71A C75G, for which the nonsense suppression was at most 0.026.

Regarding G67A G78U C83A, the nonsense suppression was at most 0.026.

For the variant U58G U63A C64A G73C, the nonsense suppression was at most 0.026.

In the case of G10U U20G, the nonsense suppression is at most 0.026.

As for U55A G61A, the nonsense suppression was at most 0.026.

On to G25A G28A, for which the nonsense suppression is at most 0.026.

For the variant C5G A13U U20A U21A A23U U63G, the nonsense suppression is at most 0.026.

Regarding C5A G15C G67C, the nonsense suppression is at most 0.026.

In the case of U4A C5G A33G, the nonsense suppression was at most 0.026.

For C3G A33U A62G, the nonsense suppression was at most 0.026.

As for G25U C34A, the nonsense suppression was at most 0.026.

With G6U C27G A62C C80U, the nonsense suppression was at most 0.026.

With A23G A24C, the nonsense suppression turned out to be 0.156.

For the variant U22G C83U G84A, the nonsense suppression is at most 0.026.

Regarding G18C C34U C75G, the nonsense suppression is at most 0.026.

Consider G7C A31G A33U, for which the nonsense suppression was at most 0.026.

With G18C A31G U76C, the nonsense suppression is at most 0.026.

For C1U U22C U57G C83U, the nonsense suppression is at most 0.026.

In the case of A87C A89C, the nonsense suppression was at most 0.026.

Turning to A23G U35A C81G, the nonsense suppression is at most 0.026.

Regarding A24G U57C A60G C75G, the nonsense suppression is at most 0.026.

Consider C34G A89C, for which the nonsense suppression is at most 0.026.

On to A9C A13G U55A G73U, for which the nonsense suppression was at most 0.026.

A54G G66A A87C: the nonsense suppression was at most 0.026.

Turning to U8C U17A, the nonsense suppression is at most 0.026.

Consider G10U G15A G26U A60U A74G G85A, for which the nonsense suppression is at most 0.026.

For U17G, the nonsense suppression worked out at 0.999.

On to U8C G86C, for which the nonsense suppression was at most 0.026.

U8C G86U: the nonsense suppression was at most 0.026.

As for U22G G78A, the nonsense suppression is 0.173.

For U17G G19U G26A C80U, the nonsense suppression is at most 0.026.

Take G19U C56A: the nonsense suppression was at most 0.026.

As for G32U U70C, the nonsense suppression is at most 0.026.

Turning to G78A G88U, the nonsense suppression is at most 0.026.

On to U16C G59C G69U C72U, for which the nonsense suppression is at most 0.026.

A14U U63A: the nonsense suppression worked out at 0.0439.

Take U71C A74U: the nonsense suppression is at most 0.026.

As for G25A G78C, the nonsense suppression is at most 0.026.

With C12G C27A G69A G88U, the nonsense suppression was at most 0.026.

For G25C G26C, the nonsense suppression was at most 0.026.

In the case of A14U C27U A33U, the nonsense suppression was at most 0.026.

For the variant U8G G59A C77G, the nonsense suppression is at most 0.026.

Take C3U G19U U22G U71C C82A: the nonsense suppression was at most 0.026.

For A23U A30G U63A, the nonsense suppression was at most 0.026.

As for U35C U57C C80A, the nonsense suppression is at most 0.026.

Take A24C G69U A89U: the nonsense suppression was at most 0.026.

G10U U22A C27A G73U: the nonsense suppression is at most 0.026.

Turning to U58A C77A C79U, the nonsense suppression is at most 0.026.

As to C3A U20G C56G, the nonsense suppression was at most 0.026.

On to U57A G65A C79A, for which the nonsense suppression was at most 0.026.

Regarding G7A A62U G73C A87U, the nonsense suppression is at most 0.026.

On to A33U G65C, for which the nonsense suppression is at most 0.026.

Regarding A62U U71G, the nonsense suppression was at most 0.026.

For the variant U35A C68U, the nonsense suppression is at most 0.026.

A31G C75U: the nonsense suppression came to 1.05.

For C1U G69U, the nonsense suppression was at most 0.026.

In the case of C1G A9G A33G C77A G78C, the nonsense suppression is at most 0.026.

On to G6U C27A G61A U63A A87G, for which the nonsense suppression was at most 0.026.

A13G G15U U55C U63A A74U: the nonsense suppression was at most 0.026.

As for U22G G66U, the nonsense suppression was at most 0.026.

As to U8C U71G, the nonsense suppression was at most 0.026.

For G10A A54G, the nonsense suppression is at most 0.026.

Take G6A C64G: the nonsense suppression was at most 0.026.

Regarding A14U A24U A74C, the nonsense suppression is at most 0.026.

On to U22C U58G G59A G65A, for which the nonsense suppression was at most 0.026.

For C3U A24G A60U, the nonsense suppression is at most 0.026.

With G26C G67A, the nonsense suppression was at most 0.026.

Regarding C5G C12G, the nonsense suppression came to 0.174.

Consider U20C G32C, for which the nonsense suppression is at most 0.026.

Take G6A C83G G86U: the nonsense suppression is at most 0.026.

Consider G7U C64U, for which the nonsense suppression is at most 0.026.

Regarding A14U G88A, the nonsense suppression was at most 0.026.

Turning to C1U G69C U71G G84U, the nonsense suppression is at most 0.026.

For G25U U63C C79A, the nonsense suppression is at most 0.026.

With C56U G59C A60C C80U, the nonsense suppression is at most 0.026.

For A60U G66C G86A, the nonsense suppression is at most 0.026.

With C3G A54C G86U, the nonsense suppression was at most 0.026.

Turning to C5G A24G C56A, the nonsense suppression was at most 0.026.

Regarding U20A G28C U35C A54C C64U, the nonsense suppression was at most 0.026.

On to C27G U57A, for which the nonsense suppression is at most 0.026.

For the variant G32C C34A A62U G69C G88A, the nonsense suppression is at most 0.026.

With C11G A62U, the nonsense suppression is at most 0.026.

For the variant C81G G88A, the nonsense suppression is at most 0.026.

With A13C G84A, the nonsense suppression turned out to be 0.175.

Regarding A13G G67U G86C, the nonsense suppression is at most 0.026.

Turning to U58A G67C, the nonsense suppression is at most 0.026.

Turning to G6A G32C A33G U35A C81G, the nonsense suppression is at most 0.026.

As to A23G C29U, the nonsense suppression is 0.142.

On to U2G C3U C27U, for which the nonsense suppression was at most 0.026.

As to A14U U16A C80U, the nonsense suppression is at most 0.026.

On to U55A U71C, for which the nonsense suppression is at most 0.026.

Regarding G59U C80A C81G, the nonsense suppression is at most 0.026.

In the case of A9G A62U G65U, the nonsense suppression is at most 0.026.

Regarding U16C G28A, the nonsense suppression came to 1.06.

A9C G25C A31U: the nonsense suppression is at most 0.026.

Turning to C1A C5G A62C, the nonsense suppression was at most 0.026.

With U55G G88C, the nonsense suppression was at most 0.026.

As for U4C A14C C27U A30U A60G, the nonsense suppression is at most 0.026.

As to C27G G65C, the nonsense suppression was at most 0.026.

With U2A U8C A9U A31G C64A C77A C80A G86C, the nonsense suppression is at most 0.026.

Take C3G A31G C81G C82A: the nonsense suppression is at most 0.026.

Take A33C C83A G84U: the nonsense suppression is at most 0.026.

On to A23G U63C G66A C82G, for which the nonsense suppression is at most 0.026.

Consider G19U C82A G86C, for which the nonsense suppression was at most 0.026.

Consider U17G G18U U55G G73A, for which the nonsense suppression was at most 0.026.

As for C11G U20G C72G, the nonsense suppression is at most 0.026.

With C11A G18A, the nonsense suppression is at most 0.026.

With A14U G32U, the nonsense suppression is at most 0.026.

For the variant U17G G69C, the nonsense suppression was at most 0.026.
